Data as given in PubChem BioAssay AID504339 (National Center for Advancing Translational Sciences (NCATS), 2011).
Among all 390,000 compounds or so, about 17,000 (4.4%) were called active. Inconclusive means that the source gave no clear call. Such entries were picked first, then a sample of the others. Calls follow the shape of the dose curve; as a rule, active = well fitted inhibition curve with a large enough effect; inconclusive = small, poorly fitted or top-dose-only effect; inactive = no such curve, though single readings can be large or run the other way. Where the call is inconclusive, the potency comes from a doubtful curve fit.

Molecular target: Lysine-specific demethylase 4A (Homo sapiens) (UniProt O75164)
UniProt O75164, sequence (O75164 whole entry, looked up, the tested form may be a part): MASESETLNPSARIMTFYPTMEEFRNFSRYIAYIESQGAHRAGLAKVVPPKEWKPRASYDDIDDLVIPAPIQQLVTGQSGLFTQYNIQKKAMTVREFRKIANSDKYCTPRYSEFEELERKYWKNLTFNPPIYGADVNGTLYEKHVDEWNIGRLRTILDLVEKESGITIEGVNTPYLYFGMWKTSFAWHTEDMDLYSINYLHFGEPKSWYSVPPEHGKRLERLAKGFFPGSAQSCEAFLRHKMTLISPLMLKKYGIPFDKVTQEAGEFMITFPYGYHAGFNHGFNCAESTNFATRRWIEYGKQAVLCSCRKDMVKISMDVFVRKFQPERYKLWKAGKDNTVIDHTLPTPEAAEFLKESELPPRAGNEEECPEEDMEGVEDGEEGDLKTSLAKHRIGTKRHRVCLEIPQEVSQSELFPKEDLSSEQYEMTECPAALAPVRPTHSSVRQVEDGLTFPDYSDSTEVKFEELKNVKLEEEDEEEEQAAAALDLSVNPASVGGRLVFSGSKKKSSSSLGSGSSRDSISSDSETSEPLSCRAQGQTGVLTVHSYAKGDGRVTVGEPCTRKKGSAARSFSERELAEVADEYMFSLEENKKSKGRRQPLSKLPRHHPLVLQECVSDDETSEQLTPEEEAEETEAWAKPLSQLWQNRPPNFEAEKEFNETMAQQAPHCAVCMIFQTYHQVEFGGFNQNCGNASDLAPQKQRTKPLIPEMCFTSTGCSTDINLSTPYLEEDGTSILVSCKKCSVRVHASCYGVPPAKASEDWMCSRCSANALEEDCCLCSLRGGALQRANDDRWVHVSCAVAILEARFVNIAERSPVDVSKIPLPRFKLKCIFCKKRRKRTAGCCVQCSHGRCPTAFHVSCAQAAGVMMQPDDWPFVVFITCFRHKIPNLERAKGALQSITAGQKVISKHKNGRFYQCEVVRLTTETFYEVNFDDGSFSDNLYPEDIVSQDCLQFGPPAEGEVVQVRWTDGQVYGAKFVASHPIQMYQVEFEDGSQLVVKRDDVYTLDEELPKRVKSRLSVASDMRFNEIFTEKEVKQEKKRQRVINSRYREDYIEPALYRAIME
Test: qHTS Assay for Inhibitors of JMJD2A-Tudor Domain; also: nearly all actives have a fitted effect of over 50% in size
Settings: AlphaScreen JMJD2A-Tudor / H3K4me3 peptide binding; series mostly up to 114 µM
Potency is read from the fitted curve at half-maximal effect; tags tell the direction and shape of the fitted curve.

Potency, inactive:
CC(C)(C)NCC(O)COc1ccccc1C1CCCC1 (stereo unspecified), S=c1[nH]nc(-c2ccc(Cl)cc2Cl)n1-c1ccccc1, COc1ccc(NC(=S)N2CCN(Cc3ccco3)CC2)c(OC)c1, COc1ccc(OC)c(C2CC(=O)Nc3c2c(=O)[nH]c2nc4ccccc4n32)c1 (stereo unspecified), CCOC(=O)C1CCN(CCC(=O)Nc2ccccc2OC)CC1, Cc1nn(C)c2c1c(C(F)(F)F)cc(=O)n2Cc1ccc(Br)cc1F

Potency, active:
O=C(COC(=O)c1cc2c(s1)CCC2)Nc1ccc(F)cc1 14.1 µM, C=CCc1cc(C)ccc1OCC(O)CN1CCN(c2ccccc2)CC1 (stereo unspecified) 2.82 µM, CN(C)S(=O)(=O)c1cccc(NC(=O)c2ccc(S(=O)(=O)N3CCCCC3)cc2)c1 89.1 µM, COCCCNCCOCCOc1ccc(Cl)cc1Br 1.78 µM

Potency, inconclusive:
Cc1sc2nc3n(c(=O)c2c1C)NC(=O)CC3 28.2 µM [inhibitor, single point], Cc1ccc(Nc2nc(-c3ccc(O)cc3O)cs2)nc1 50.1 µM [inhibitor, partial curve], Nc1nc(CN2CCN(c3ccccc3)CC2)nc(Nc2ccc(Cl)cc2)n1 35.5 µM [inhibitor, partial curve], COc1cccc(NC(=O)CCc2nnc3ccc(N4CCC(C)CC4)nn23)c1 14.1 µM [inhibitor, partial curve, poor fit], CCCC(NC(=S)NCC1CCCO1)C12CC3CC(CC(C3)C1)C2 (stereo unspecified) 39.8 µM [inhibitor, full curve], O=c1cc(O)c2c(=O)n(Cc3ccccc3)c3ccccc3c2o1 20 µM [inhibitor, partial curve, poor fit], C=CC[C@H]1C=C[C@@H](C(C(=O)OC)C(=O)OC)CN1C(C)=O 39.8 µM [inhibitor, partial curve], C=CCSc1nnc(CSc2nc3sc4c(c3c(=O)[nH]2)CCCC4)n1-c1ccccc1 20 µM [inhibitor, full curve], Cc1[nH]n(C(N)=S)c(=O)c1N=Nc1ccc(Cl)cc1Cl 25.1 µM [inhibitor, full curve], Cc1cc(NC(=O)c2cccc(S(=O)(=O)N3CCCCCC3)c2)n(-c2ccccn2)n1 89.1 µM [inhibitor, single point], CCCCC1CCCOC(C(=O)NCCNCCO)(C(F)(F)F)C1 (stereo unspecified) 7.08 µM [inhibitor, single point]
